PubChem BioAssay AID1347120 (National Center for Advancing Translational Sciences (NCATS), 2019)
The whole screen tested about 390,000 compounds, of which about 930 (0.24%) were called active. This list was built around the results that the source calls inconclusive (neither active nor inactive); the mix of calls is not that of the screen. Calls come from the whole dose curve; as a rule, active = well fitted activation curve with a large enough effect; inconclusive = small, poorly fitted or top-dose-only effect; inactive = no such curve, though single readings can be large or run the other way. Potencies beside an inconclusive call are fits to weak or partial responses and may not hold up.
Potency is the fitted concentration of half-maximal effect; tags give direction and shape of the fitted curve.

Assay: qHTS for Suppressors of FUS Proteinopathy: Primary screen using FUS-linked yeast assay; note: nearly all actives have a fitted effect of over 55% in size;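 for growth rescue (activation): plate controls were DMSO vehicle for no effect and reference control for full effect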
Settings: S. cerevisiae FUS-expressing, OD600, 24 h; Potency: growth rescue; growth rescue (activation): at 76.6 µM (top of the series)
In short: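 S. cerevisiae expressing FUS from galactose induction served as the toxicity model. Growth after 24hr at 30C, read as absorbance at 600 nm, indicates suppression of toxicity; compounds dosed at several concentrations.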
For `O=[N+]([O-])c1ccc(/C=N/Nc2nc(N3CCCCCC3)nc(N3CCCCCC3)n2)o1`, the Potency was inconclusive: 39.8 µM [activator, partial curve, poor fit].
For `CC(C)(C)OC(=O)CNC(=O)c1[nH]cnc1C(=O)NC(c1ccccc1)c1ccccc1`, the Potency was inconclusive: 17.8 µM [activator, single point].
In the case of `COCCn1c(C)cc(C(=O)COC(=O)c2cc3c(s2)CCC3)c1C`, the Potency is reported as inconclusive: 35.5 µM [activator, single point].
For `COc1cccc(C(=O)NCCSCc2ccccc2Cl)c1`, the Potency was inconclusive: 5.01 µM [activator, full curve, poor fit].
In the case of `Cc1ccc(C)c(N2CCN(C(=O)c3cc4ccc5cccnc5c4[nH]3)CC2)c1`, the Potency is reported as inconclusive: 28.2 µM [activator, partial curve, poor fit].
With `CCc1nnc(NS(=O)(=O)c2ccc(NS(=O)(=O)c3ccccc3[N+](=O)[O-])cc2)s1` the Potency was inconclusive: 31.6 µM [activator, partial curve, poor fit].
In the case of `CN(C(=O)c1ccc(NC(=O)Cc2ccc(NC(=O)C3CCCN(C(=O)c4ccccc4)C3)cc2)cc1)C1CCCC1` (configuration not stated), the Potency is reported as inconclusive: 50.1 µM [activator, single point].
For `CCCCCC(=O)N1C[C@H](n2cc(COC(=O)c3ccccc3)nn2)[C@@H](O)C[C@@H]1c1ccc(OC)cc1`, the Potency was inconclusive: 20 µM [activator, partial curve, poor fit].
For `S=c1sscc1-c1ccccc1`, the Potency was “inactive”.
With `CC(C)C(=O)N1CCN(c2ccccc2NC(=O)c2ccc3c(c2)OCCO3)CC1` the Potency was inconclusive: 50.1 µM [activator, single point].
With `COc1ccc(-c2nsc(NC(=O)COc3ccc(C)c(C)c3)n2)cc1` the Potency was “inactive”.
In the case of `O=c1[nH]c(=O)c2cn[nH]c2[nH]1`, the Potency is reported as “inactive”.
For `CCCC(=O)Nc1ccc(NCc2ccc(C)s2)cc1`, the Potency was inconclusive: 0.794 µM [activator, full curve, poor fit].
In the case of `COc1cc(C)ccc1S(=O)(=O)NC(=O)C1(C)CCN1C(=O)Cc1ccc(C(C)(C)C)cc1` (configuration not stated), the Potency is reported as inconclusive: 20 µM [activator, partial curve].
With `Cc1ccccc1CCNC(=O)c1ccc2c(c1)c(C)c(C)n2C` the Potency was inconclusive: 35.5 µM [activator, single point].
In the case of `O=C(CN1CCN(c2nc(-c3ccccc3)cs2)CC1)Nc1ccc(F)cc1F`, the Potency is reported as inconclusive: 17.8 µM [activator, partial curve, poor fit].
With `CC(O)(c1ccccc1)c1nc(-c2ccncc2)cs1` (configuration not stated) the Potency was “inactive”.
For `Cc1ccc(NC(=S)Nc2cccnc2)c(S(=O)(=O)N2CCCCC2)c1`, the Potency was active: 35.5 µM.
For `CC(=O)N(Cc1ccc(F)cc1)C1=C(NCc2ccccc2)C(=O)c2ccccc2C1=O`, the Potency was inconclusive: 50.1 µM [activator, single point].
For `CC(C)C1C(=O)N(Cc2cn(Cc3ccco3)nn2)CCS(=O)(=O)N1Cc1ccc(-c2ccc(Cl)c(Cl)c2)cc1` (configuration not stated), the Potency was inconclusive: 31.6 µM [activator, single point].
In the case of `Cc1nc2c(c(C)c1CCC(=O)Nc1cccc(C(F)(F)F)c1)c(=O)n(C)c(=O)n2C`, the Potency is reported as “inactive”.
With `O=C(Nc1nc([C@@H]2O[C@H](CO)[C@@H](O)[C@H](O)[C@H]2O)cs1)NC(c1ccccc1)c1ccccc1` the Potency was “inactive”.
For `Cc1ccc(-c2nnc(Nc3ccc(Br)cc3)c3ccccc23)cc1S(=O)(=O)N1CCOCC1`, the Potency was inconclusive: 14.1 µM [activator, partial curve, poor fit].
With `O=S(=O)(c1cccc(-c2nnc(SCc3nc4ccccc4s3)o2)c1)N1CCOCC1` the Potency was inconclusive: 22.4 µM [activator, single point].
For `Cc1ccc(C)c2[nH]c(=O)c(CN(CC3CCCO3)C(=S)NCc3ccco3)cc12` (configuration not stated), the Potency was inconclusive: 31.6 µM [activator, single point].
For `Cc1ccc(-c2nc3ccccc3[nH]2)cc1NC(=O)/C=C/c1ccco1`, the Potency was inconclusive: 50.1 µM [activator, single point].
For `CC1=C(C(=O)Nc2ccccc2C)C(c2cccnc2)n2nc(SCc3ccccc3)nc2N1` (configuration not stated), the Potency was “inactive”.
In the case of `CCOC(=O)N1CCC(Nc2c(NCCCOC)c(=O)c2=O)CC1`, the Potency is reported as inconclusive: 50.1 µM [activator, single point].
With `CCC(CC)C(=O)Oc1c(C(=O)N(C)C)cccc1-c1ccccc1` the Potency was “inactive”.
For `O=C(CC1N=C2c3ccccc3N=C(SCc3ccc(Cl)cc3)N2C1=O)NCCc1ccccc1` (configuration not stated), the Potency was inconclusive: 39.8 µM [activator, partial curve, poor fit].
For `CCOC(=O)C1CCN(c2nc(C)nc3c2oc2ccccc23)CC1`, the growth rescue (activation) was inconclusive: 74% [activator].
With `COc1cccc(CNC(=O)CN2C(=O)COc3ccc(S(=O)(=O)N4CCC(C)CC4)cc32)c1` the Potency was inconclusive: 50.1 µM [activator, single point].
In the case of `Clc1ccc(Nc2nc(-c3cccnc3)cs2)cc1`, the Potency is reported as “inactive”.
For `CCOc1ccc(C2c3c(-c4ccc(C)cc4)n[nH]c3C(=O)N2c2ccc(Cl)cc2)cc1` (configuration not stated), the Potency was inconclusive: 28.2 µM [activator, single point].
For `CC(C)c1ccc(CCNC(=O)c2ccc([N+](=O)[O-])cc2)cc1`, the Potency was “inactive”.
For `COC[C@@H](OC(C)=O)[C@H]1OCc2ccccc2[C@@H]1/C=C/c1ccccc1`, the Potency was “inactive”.
In the case of `CSc1nc(S(=O)(=O)c2ccc(C)cc2)c(Cl)s1`, the Potency is reported as “inactive”.
In the case of `Cc1ccc(-n2c(C)c3c(C)nnc(C)c3c2C)cc1C`, the Potency is reported as inconclusive: 12.6 µM [activator, partial curve, poor fit].
For `CCc1nc2ccccc2c(C(=O)OCC(=O)N(C)Cc2ccccc2)c1C`, the Potency was “inactive”.
In the case of `COc1ccc(Cl)cc1-c1cc(C(=O)Nc2ccc(C(C)(C)C)cc2)[nH]n1`, the Potency is reported as inconclusive: 22.4 µM [activator, partial curve, poor fit].
In the case of `COc1cc(NC(=O)C(CC(C)C)NS(=O)(=O)c2ccc3c(c2)CCCC(=O)N3)cc(OC)c1` (configuration not stated), the Potency is reported as “inactive”.
In the case of `Cc1oc2c(c1C(=O)NCc1cccc(Br)c1)C1=NCCN1C=N2`, the Potency is reported as inconclusive: 50.1 µM [activator, single point].
